Some of the results follow. The data describe in vitro nicking of single-stranded DNA by Rep domains (3 µM enzyme, 1 h, 37 °C); shown is the middle of each 90-letter strand. Values are log2 of uncut reads against the no-enzyme pool; strong cutting gives strongly negative numbers. There is no active / inactive call. Reads are scaled to the total; where an enzyme cuts many sequences, the uncut ones exceed 0.
How the values were obtained:
Test in all cases: uncleaved DNA left, log2 of reads against the no-enzyme library (log2 ratio); higher = less cleavage (more negative = more Rep cleavage of the k-mer); sequences stand for … in CTCGTCCG…ACCGGAGA
[1] = system: T1, Rep nickase domain of Muscovy duck circovirus
T1 sequence (residues 1-111, tag not shown): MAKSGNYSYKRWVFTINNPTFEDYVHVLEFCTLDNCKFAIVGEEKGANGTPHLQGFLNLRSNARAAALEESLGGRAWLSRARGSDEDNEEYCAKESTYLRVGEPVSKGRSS
Procedure: (§1)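 A pool of 90-nt single-stranded DNAs with seven random bases just before the constant AC of the nick site (name = the seven bases) was cut by 3 µM recombinant His6-SUMO-tagged Rep nickase domain (300 nM DNA, 50 mM HEPES pH 8.0, 50 mM NaCl, 1 mM MnCl2, 1 h, 37 °C, three replicates). Uncut DNA was amplified and sequenced.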

[2] = system: T2, Rep nickase domain of banana bunchy top virus
T2 sequence (residues 1-94, tag not shown): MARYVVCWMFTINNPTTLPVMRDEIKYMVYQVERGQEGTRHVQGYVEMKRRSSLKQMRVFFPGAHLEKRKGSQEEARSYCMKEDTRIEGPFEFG
Procedure: as §1

[3] = system: T3, Rep nickase domain of cabbage leaf curl virus
T3 sequence (residues 1-116, tag not shown): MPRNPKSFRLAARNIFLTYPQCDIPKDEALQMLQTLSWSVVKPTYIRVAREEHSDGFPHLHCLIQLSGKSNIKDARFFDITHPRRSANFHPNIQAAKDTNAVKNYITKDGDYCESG
Procedure: as §1

[4] = system: T4, Rep nickase domain of chickpea chlorotic dwarf virus
T4 sequence (residues 1-124, tag not shown): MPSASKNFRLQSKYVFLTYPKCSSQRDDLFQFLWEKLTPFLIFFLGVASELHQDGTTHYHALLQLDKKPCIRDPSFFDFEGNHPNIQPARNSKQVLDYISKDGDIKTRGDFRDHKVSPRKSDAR
Procedure: as §1

[5] = system: T5, Rep nickase domain of faba bean necrotic yellows virus
T5 sequence (residues 1-98, tag not shown): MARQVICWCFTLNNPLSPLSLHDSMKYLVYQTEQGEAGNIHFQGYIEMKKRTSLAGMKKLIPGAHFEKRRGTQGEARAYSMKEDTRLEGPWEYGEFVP
Procedure: as §1

[6] = system: T6, Rep nickase domain of maize striate mosaic virus
T6 sequence (residues 1-117, tag not shown): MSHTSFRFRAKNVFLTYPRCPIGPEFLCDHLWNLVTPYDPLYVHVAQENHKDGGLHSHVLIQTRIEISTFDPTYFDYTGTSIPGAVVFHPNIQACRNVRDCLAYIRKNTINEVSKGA
Procedure: as §1

[7] = system: T7, Rep nickase domain of porcine circovirus 2
T7 sequence (residues 2-116, tag not shown): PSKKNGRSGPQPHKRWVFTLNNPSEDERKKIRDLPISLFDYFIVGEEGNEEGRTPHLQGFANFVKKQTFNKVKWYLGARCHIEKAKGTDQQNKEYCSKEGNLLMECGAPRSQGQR
Procedure: as §1

[8] = system: T8, Rep nickase domain of tomato golden mosaic virus
T8 sequence (residues 1-124, tag not shown): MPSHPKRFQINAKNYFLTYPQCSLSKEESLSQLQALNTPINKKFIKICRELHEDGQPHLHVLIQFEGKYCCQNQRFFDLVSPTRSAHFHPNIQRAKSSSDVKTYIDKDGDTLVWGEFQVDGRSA
Procedure: as §1

[9] = system: T9, Rep nickase domain of tomato yellow leaf curl virus
T9 sequence (residues 1-136, tag not shown): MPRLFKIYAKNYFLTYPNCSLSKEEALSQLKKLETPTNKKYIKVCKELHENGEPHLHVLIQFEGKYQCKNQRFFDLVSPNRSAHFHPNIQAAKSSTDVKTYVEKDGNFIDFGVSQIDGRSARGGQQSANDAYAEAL
Procedure: as §1

[10] = system: T10, Rep nickase domain of wheat dwarf virus
T10 sequence (residues 1-137, tag not shown): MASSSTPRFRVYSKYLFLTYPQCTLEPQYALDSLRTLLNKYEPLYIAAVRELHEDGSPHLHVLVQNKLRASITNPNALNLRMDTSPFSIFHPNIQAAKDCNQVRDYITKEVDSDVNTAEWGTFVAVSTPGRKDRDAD
Procedure: as §1

Sequence | uncleaved DNA left (log2) [1] | uncleaved DNA left (log2) [2] | uncleaved DNA left (log2) [3] | uncleaved DNA left (log2) [4] | uncleaved DNA left (log2) [5] | uncleaved DNA left (log2) [6] | uncleaved DNA left (log2) [7] | uncleaved DNA left (log2) [8] | uncleaved DNA left (log2) [9] | uncleaved DNA left (log2) [10]
GTATTCT | -0.2 | 0.0917 | 0.261 | 0.685 | -0.0146 | 1.69 | -0.127 | 0.0642 | 0.0595 | -0.0282
GTTGGAT | 0.0446 | -0.00352 | 0.317 | 1.39 | -0.0443 | 1.85 | 0.192 | 0.193 | -0.0088 | 0.0192
ATCTCCA | -0.0241 | 0.0602 | -0.228 | -0.283 | 0.0588 | 1.16 | 0.0417 | -0.00689 | 0.0355 | -0.0279
AGAGCGC | -0.0101 | 0.042 | -0.152 | 0.0291 | 0.124 | -0.67 | 0.154 | 0.0641 | 0.136 | -0.0214
GCACACC | -0.00967 | -0.00307 | -0.0366 | 0.029 | -0.0431 | -0.0487 | -0.0643 | 0.00645 | -0.00509 | 0.039
TAGACGT | 0.035 | 0.068 | 0.262 | 0.487 | 0.057 | 0.576 | -1.91 | 0.0585 | 0.0459 | 0.117
GATAGGG | 0.0787 | 0.107 | 0.0167 | 0.341 | 0.0378 | -0.083 | 0.195 | 0.0523 | 0.14 | 0.0582
AGGTTCT | -0.388 | 0.0762 | 0.0693 | -0.849 | 0.0177 | 0.462 | -2.92 | -0.00958 | 0.127 | 0.201
TTGCGAT | -0.0164 | -0.0837 | -0.686 | -0.0436 | 0.00339 | -0.819 | 0.098 | -0.0487 | 0.0145 | -0.185
CAATTAT | -1.96 | -0.241 | -4 | -3.38 | 0.0256 | -3.2 | -3.7 | -4.01 | -0.294 | -3.98
TAGTCGG | 0.0382 | 0.0811 | 0.588 | 1.38 | -0.0186 | 1.84 | -0.124 | 0.168 | -0.189 | 0.0918
AGCTTGT | 0.0564 | 0.124 | 0.124 | 0.649 | 0.134 | 0.73 | -0.369 | 0.0884 | 0.0926 | -0.019
GCCTGAA | -0.11 | -0.154 | 0.00185 | 0.437 | -0.0638 | 0.255 | -0.00206 | 0.00543 | -0.122 | -0.0339
CAATGTG | 0.117 | 0.0053 | -0.661 | 0.0368 | 0.142 | -0.825 | 0.177 | 0.185 | 0.162 | -0.0809
CGATCTT | -0.666 | -0.226 | -0.0548 | 0.0992 | -0.108 | 1.23 | -1.01 | -0.265 | -0.103 | -0.0048
TGCACTT | -0.00442 | -0.0204 | 0.0437 | -0.351 | -0.11 | 0.769 | -0.0405 | -0.00628 | -0.0179 | 0.0992
AGCGGTG | 0.0854 | 0.16 | 0.102 | 0.589 | 0.0212 | 1.56 | 0.234 | 0.211 | 0.1 | 0.0883
CACCGAC | 0.0471 | -0.014 | -0.0568 | 0.0925 | -0.0184 | -0.503 | 0.031 | -0.0854 | 0.0768 | 0.125
AGAACCA | 0.0453 | 0.0977 | 0.494 | 0.841 | 0.12 | 1.78 | 0.0857 | 0.0373 | 0.0358 | 0.0791
TGTACAT | 0.0284 | 0.107 | 0.73 | 1.63 | -0.0047 | 2 | 0.176 | -0.0191 | 0.124 | 0.24
AACTCCA | -0.202 | -0.12 | -0.181 | -2.2 | -0.124 | -0.00632 | -2.51 | -0.00233 | -0.0544 | 0.0562
CGGGTCA | 0.0491 | 0.0975 | 0.795 | 1.54 | -0.00561 | 2.06 | 0.266 | 0.027 | 0.0866 | 0.232
GATACTA | 0.0606 | 0.101 | 0.153 | 0.0982 | 0.152 | 0.764 | 0.00934 | 0.118 | 0.117 | 0.202
TTGTACG | -0.034 | -0.0413 | -0.881 | -0.767 | -0.115 | -1.34 | 0.226 | -0.172 | 0.0154 | -0.154
AGCCGTT | -0.035 | -0.125 | 0.168 | -0.137 | -0.00619 | 0.152 | -0.182 | -0.08 | -0.0895 | -0.133
TTAACAT | 0.0651 | 0.13 | 0.0109 | -0.749 | 0.0392 | 0.739 | 0.0739 | 0.0659 | 0.188 | 0.207
AGAAGCG | 0.0291 | -0.00206 | -0.657 | 0.449 | 0.109 | -0.637 | 0.208 | 0.0642 | 0.0897 | 0.0248
CACTCTA | -0.166 | -0.36 | -0.155 | -2.84 | -0.0621 | -0.836 | -2.31 | -0.0872 | -0.175 | -0.0796
CTAGTTT | 0.178 | -0.0171 | -0.0327 | -2.05 | 0.0729 | -0.334 | -0.332 | 0.00426 | 0.0465 | -0.0939

— the supplement of paper PMC7826260
